# Measured values taken from PMC4336329 (PLoS ONE, 2015).
# Out of some 310,000 compounds screened, about 14,000 (4.5%) showed an effect of 50% or more. The effect is printed as a negative number. Some of the results follow.
# Molecular target: human ether-à-go-go-related gene (hERG) potassium channel (human, UniProt Q12809)
# Test: primary screen, population patch clamp on CHO cells stably expressing hERG
# 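Note: peak tail current of the secondary pulse compared with the same well before compound.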
# Chain of human ether-à-go-go-related gene (hERG) potassium channel (Q12809 whole entry, looked up): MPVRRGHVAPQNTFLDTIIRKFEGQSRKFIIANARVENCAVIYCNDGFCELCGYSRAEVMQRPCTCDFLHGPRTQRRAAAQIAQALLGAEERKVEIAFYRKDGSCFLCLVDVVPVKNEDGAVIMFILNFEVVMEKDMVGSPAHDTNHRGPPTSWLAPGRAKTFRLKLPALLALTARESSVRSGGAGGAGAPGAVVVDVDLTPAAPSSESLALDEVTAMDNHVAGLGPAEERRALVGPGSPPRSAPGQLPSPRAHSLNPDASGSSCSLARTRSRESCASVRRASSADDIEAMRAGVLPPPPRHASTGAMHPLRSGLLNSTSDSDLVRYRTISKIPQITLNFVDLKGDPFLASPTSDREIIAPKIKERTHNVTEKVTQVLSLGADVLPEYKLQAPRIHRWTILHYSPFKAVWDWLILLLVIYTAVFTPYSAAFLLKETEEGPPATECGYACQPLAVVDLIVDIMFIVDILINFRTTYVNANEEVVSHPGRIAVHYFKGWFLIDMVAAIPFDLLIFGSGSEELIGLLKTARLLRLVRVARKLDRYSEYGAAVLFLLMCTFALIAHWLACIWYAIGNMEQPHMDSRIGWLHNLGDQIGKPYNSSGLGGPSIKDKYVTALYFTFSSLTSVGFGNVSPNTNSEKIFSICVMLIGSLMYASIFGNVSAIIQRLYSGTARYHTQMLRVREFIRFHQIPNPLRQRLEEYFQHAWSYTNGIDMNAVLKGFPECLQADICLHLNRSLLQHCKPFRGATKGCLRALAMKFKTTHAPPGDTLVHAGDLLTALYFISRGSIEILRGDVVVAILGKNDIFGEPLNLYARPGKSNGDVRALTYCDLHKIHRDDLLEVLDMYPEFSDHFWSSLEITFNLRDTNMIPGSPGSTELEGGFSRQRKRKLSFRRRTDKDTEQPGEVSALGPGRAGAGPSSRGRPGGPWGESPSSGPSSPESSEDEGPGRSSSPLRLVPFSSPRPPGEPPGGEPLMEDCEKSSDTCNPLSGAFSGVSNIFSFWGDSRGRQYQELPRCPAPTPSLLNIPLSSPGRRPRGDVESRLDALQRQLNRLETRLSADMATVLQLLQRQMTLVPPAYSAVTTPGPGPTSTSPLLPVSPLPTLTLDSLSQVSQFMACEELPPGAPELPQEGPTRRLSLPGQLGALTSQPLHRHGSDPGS
row,SMILES,"hERG current change (%, negative = inhibition) at 10uM"
1,COc1ccc(CC(=O)N2CCN(c3ccc(C4=NNC(=O)CC4C)cc3)CC2)cc1 (stereo not drawn),9.66%
2,CCC(=O)Nc1cc2c(C)cc(=O)oc2cc1C,-14.2%
3,COc1ccc(NS(=O)(=O)c2cccc(NC(=O)C3=NN(c4ccccc4)C(=O)CC3)c2)cc1,-35.1%
4,O=C(NCCN1CCOCC1)c1cccs1,9.07%
5,COc1cccc(C(=O)NCC(=O)OCc2ccc(F)cc2Cl)c1,12.5%
6,COc1ccc(Br)cc1-c1noc(-c2ccccc2)n1,9.67%
7,CCc1cccc(NC(=S)N(CCOC)C(C)c2ccco2)c1 (stereo not drawn),-2.48%
8,COc1ccc(NC(=O)C2CC(c3ccc(Cl)cc3)=NO2)cc1OC (stereo not drawn),-4.68%
9,CC(=NCCN1CCOCC1)c1c(O)n(C2CCCCC2)c(=O)[nH]c1=O,-15.3%
10,Cc1cc(NC(=O)Cc2c(F)cccc2Cl)no1,11.1%
11,NS(=O)(=O)c1ccc(NC(=O)c2ccc(S(=O)(=O)N3CCOCC3)o2)cc1,10%
12,O=S(=O)(O)c1nc2ccccc2[nH]1,3.93%
13,CCOC(=O)NC(NC(=S)Nc1ccccc1[N+](=O)[O-])C(Cl)(Cl)Cl (stereo not drawn),-13.1%
14,O=C(/C=C/c1c(F)cccc1Cl)Nc1ncccn1,43.5%
15,CCOC(=O)CN1C(=O)N[C@@H](c2cccc(C(F)(F)F)c2)C(C(C)=O)=C1C,11.8%
16,O=C(COC(=O)c1ccc[nH]c1=O)NC1CCCCCCC1,9.76%
17,O=C(c1ccc(C(F)(F)F)cc1)N1CCN(S(=O)(=O)c2ccc3c(c2)OCCCO3)CC1,-6.27%
18,NS(=O)(=O)c1ccc2nc(NC(=O)Nc3ccc(F)cc3)sc2c1,6.61%
19,O=C(Cc1c(C(=O)O)[nH]c2ccccc12)NCCN1CCN(c2ccccc2F)CC1,-1.46%
20,COc1ccccc1N1C(=O)C(Cl)=C(N2CCCC2)C1=O,-16.9%
21,O=C(Cn1cnc2c(NC(=O)OCc3ccccc3)ncnc21)NCc1ccccn1,-7.38%
22,O=C(NCC(=O)N1CCCC(C(F)(F)F)C1)c1ccc2ccccc2c1 (stereo not drawn),-11.3%
23,O=C1C2C3C=CC(C3)C2C(=O)N1c1ccc(S(=O)(=O)Nc2nccs2)cc1 (stereo not drawn),17.3%

row,SMILES,"hERG current change (%, negative = inhibition) at 10uM"
1,COc1cc(/C=N/N=C(\N)c2nonc2N)cc(OC)c1OC,9.55%
2,COc1ccc(Cl)cc1NC(=S)Nc1ccccc1F,15.3%
3,CCc1ccc(C(=O)NCc2ccc(Cl)cc2Cl)cc1,-11.9%
4,Cc1ccc(S(=O)(=O)c2nc(NN(C)C)sc2Cl)cc1,-5.48%
5,COc1cccc(NC(=O)CC2COc3ccccc3O2)c1 (stereo not drawn),9.43%
6,Cc1ccc(S(=O)(=O)NCC(=O)NCC(=O)N2CCC(C)CC2)cc1,5.63%
7,Cc1ccc(NC(=O)Cc2c[nH]c3ccccc23)cc1S(=O)(=O)N1CCCCCC1,14.1%
8,CN(CC(=O)Nc1cccc(F)c1)C(=O)C1(c2ccccc2)CC1,11.3%
9,COc1ccc(/C=C2\N=C(C)OC2=O)cc1[N+](=O)[O-],15.1%
10,O=C(Cc1ccc(Br)cc1)NC1CCCCC1,-6.87%
11,CC(C)n1ncc2c(C(=O)Nc3cccc(S(=O)(=O)N(C)C)c3)cc(C3CC3)nc21,-8.66%
12,COC(=O)c1ccc(CSc2nc3ccccc3c(=O)n2N)cc1,16.2%
13,COc1ccc(-c2cc(C(F)(F)F)n3nc(C(=O)N4CCOCC4)c(Cl)c3n2)cc1,-18.4%
14,CC1=CC(C)C2C(=O)N(CCC[N+](C)(C)C)C(=O)C2C1.[I-] (stereo not drawn),16.4%
15,O=C(c1cccs1)N1CCN(S(=O)(=O)N2CCCCC2)CC1,-4.93%
16,Cc1occc1C(=O)N/N=C/c1sc(N2CCOCC2)nc1-c1ccccc1,-6.48%
17,Cc1ccc(C)c(NC(=O)C2CCCC2)c1,15.6%
18,CSC(=NCc1cccnc1)NS(=O)(=O)c1cccs1,22.8%
19,CCN1CCN(c2ccc(S(=O)(=O)N3CCOCC3)cc2NC(=O)c2cc(Cl)nc3ccccc23)CC1,-47.5%
20,O=C(NC(=S)Nc1ccc2[nH]c(=O)[nH]c2c1)c1ccccc1Cl,14.7%
21,C=C(C)C(=O)N1CC2(CC(c3cccc(NC(=O)/C=C\C=C/C)c3)=NO2)C[C@H]1C(N)=O (stereo partly drawn),0.942%
22,O=C(Cc1nnc(NC(=O)Nc2ccc(F)cc2)s1)NCc1ccccc1,6.66%
23,Cc1ccc(SCC(=O)OCC(=O)N(CC(C)C)c2c(N)n(Cc3ccccc3)c(=O)[nH]c2=O)cc1C,9.3%

row,SMILES,"hERG current change (%, negative = inhibition) at 10uM"
1,C=C(C)CCOC(=O)C(CC(=O)O)NCc1ccco1 (stereo not drawn),9.52%
2,COc1cccc(NC(=O)CN(C)C(C)C(=O)NC(=O)NC2CCCCC2)c1 (stereo not drawn),-15.7%
3,O=C(Nc1ccc(C(=O)N2CCOCC2)cc1)c1cccs1,19.7%
4,CN(c1ccc(OCC(=O)OCC(=O)Nc2ccccc2F)cc1)S(=O)(=O)c1cccs1,15.5%
5,Cc1ccc(NC(=O)NCCCl)cc1S(=O)(=O)N1CCOCC1,1.99%
6,Cl.Oc1cccnc1CCc1ccccc1,7.41%
7,COc1ccc(CCNc2nc(C)nc3c2nnn3Cc2ccccc2)cc1OC,9.27%
8,COc1cc(N2C(=O)CSC23C(=O)Nc2ccccc23)cc(OC)c1OC (stereo not drawn),-4.35%
9,COc1ccc(-c2nc(N)n(C(=O)c3ccccc3Cl)n2)cc1,2.37%
10,COc1ccc(C)cc1-n1ccn(CC(=O)Nc2ccc(Br)cc2F)c(=O)c1=O,-10.5%
11,O=C(Nc1ccccc1)c1ccc(=O)n(Cc2cccc(Cl)c2)c1,-32.1%
12,Cc1scc(C(=O)N2CCN(c3ccc(Cl)cc3)CC2)c1C,-3.66%
13,Cc1cc(C)c2c(CN3CCN(CCO)CC3)cc(=O)oc2c1,-50.4%
14,CCCCn1c(=O)n(Cc2cccc(F)c2)c(=O)c2c1ncn2Cc1ccco1,-14.7%
15,COCCCN1CCc2[nH]c(=S)[nH]c(=O)c2C1,12.2%
16,COc1cc(SC)ccc1C(=O)Nc1nc(C)cs1,12.3%
17,Cc1cc([N+](=O)[O-])ccc1NC(=S)NC(=O)Cc1ccccc1,4.65%
18,O=C(CCCCn1c(=O)[nH]c2ccccc2c1=O)NCCc1c[nH]c2ccccc12,-0.372%
19,O=c1c2sc(-c3ccccc3)cc2nc2n1CCCCC2,-13.1%
20,C[N+](C)(C)CCOC(N)=O.[Cl-],17.7%
21,Cc1c(C(=O)O)c(-c2ccccc2)nn1-c1ccccc1,10.9%
22,O=c1oc2ccc(C#CC3(O)CCCCC3)cc2cc1-n1cc(C2(O)CCCCC2)nn1,24.7%
23,CNC(=O)C1CN(C(=O)c2cccc(S(=O)(=O)N3c4ccccc4CC3C)c2)c2ccccc2O1 (stereo not drawn),-30.7%

row,SMILES,"hERG current change (%, negative = inhibition) at 10uM"
1,COC(C(=O)Nc1ccc(C(N)=O)cc1)c1ccccc1 (stereo not drawn),13.9%
2,CC(=O)c1cccc(NC(=O)C(C)OC(=O)c2cccc(-n3cnnn3)c2)c1 (stereo not drawn),-31.9%
3,Cc1ccc2nsnc2c1NC(=S)NC(=O)c1ccco1,9.47%
4,O=C(O)CCC(=O)Nc1ccc(-c2nnc(-c3ccco3)o2)cc1,7.35%
5,CNC(=S)/N=C/NOCc1ccc(Cl)cc1Cl,-10.2%
6,COc1ccc(NC(=O)NCCCCc2ccccc2)c(OC)c1,21.3%
7,CC(C)[C@H](NC(=O)N1CC(=O)Nc2ccccc21)C(=O)N1CCC(C(=O)O)CC1,22.2%
8,CC(/C=C/c1ccccc1)=N\Nc1nc(C)cc(C)n1,-16.8%
9,O=Cc1c(-c2ccccc2)cc2oc3ccccc3cc1-2,26.4%
10,O=[N+]([O-])c1ccc(N2CCOCC2)cc1SCc1ccco1,-18.7%
11,O=C(NC(=S)NNC(=O)c1ccccc1O)c1ccccc1,23.3%
12,Cc1cc(NC(=O)CCC(=O)N(CC(=O)NCC2CCCO2)c2ccccc2)no1 (stereo not drawn),27.5%
13,Cc1scc(C(=O)NCc2ccco2)c1-c1ccccc1,4.42%
14,Cc1nc2ccccn2c1C(=O)/C=C/c1cccc([N+](=O)[O-])c1,-32.1%
15,CCCCN(C)c1nc(-c2ccco2)c2c(c1C#N)CC(C)(C)OC2,5.54%
16,Cc1ccc(S(=O)(=O)CCSc2nc(C)cc(C(F)(F)F)c2C#N)cc1,-31%
17,CN(CC(=O)Nc1ccccc1Cl)C(=O)Cn1cc(C(F)(F)F)ccc1=O,-3.43%
18,Cc1ccc(S(=O)(=O)NCc2nc(-c3ccccc3)no2)cc1,1.69%
19,CCNC(=S)NNC(=O)CC(C)C,24.6%
20,COc1ccccc1NS(=O)(=O)c1ccc(NC(=O)Cc2cccs2)cc1,0.963%
21,CC(=O)Nc1ccc(S(=O)(=O)N(C)CC(=O)N/N=C/c2cccs2)cc1,0.815%
